# Experimental data taken from the supplement of paper PMC8728848.
# Some of the results follow.
# What was measured:
# Experiment in all cases: glycan array binding signal (z-score within array); higher = stronger binding
# Settings in all cases: glycan notation: IUPAC condensed, linker removed
# [1] = molecular target: Fuc(a1-2)Gal6S(b1-3)GlcNAc
# Procedure, shortened: (§1)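 Arrays were curated from the Consortium for Functional Glycomics database, 3228 in total, and kept only where the protein sequence was available. Binding is expressed as a within-array Z-score. This score was averaged across arrays of the same protein sequence at different concentrations or buffers and across linkers, and negative values can be read as non-binding.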
# [2] = molecular target: Fuc(a1-2)Gal6S(b1-3)GlcNAc6S
# Procedure, shortened: as §1
# [3] = molecular target: Fuc(a1-2)Gal6S(b1-4)Glc
# Procedure, shortened: as §1
# [4] = molecular target: Fuc(a1-2)Gal6S(b1-4)Glc6S
# Procedure, shortened: as §1
# [5] = molecular target: Fuc(a1-2)[Gal(a1-3)]Gal
# Procedure, shortened: as §1
# [6] = molecular target: Fuc(a1-2)[Gal(a1-3)]Gal(b1-3)GalNAc
# Procedure, shortened: as §1
# [7] = molecular target: Fuc(a1-2)[Gal(a1-3)]Gal(b1-3)GalNAc(b1-3)Gal(a1-4)Gal(b1-4)Glc
# Procedure, shortened: as §1
# [8] = molecular target: Fuc(a1-2)[Gal(a1-3)]Gal(b1-3)GlcNAc
# Procedure, shortened: as §1
# [9] = molecular target: Fuc(a1-2)[Gal(a1-3)]Gal(b1-3)GlcNAc(b1-2)Man(a1-3)[Fuc(a1-2)[Gal(a1-3)]Gal(b1-3)GlcNAc(b1-2)Man(a1-6)]Man(b1-4)GlcNAc(b1-4)GlcNAc
# Procedure, shortened: as §1
# [10] = molecular target: Fuc(a1-2)[Gal(a1-3)]Gal(b1-3)GlcNAc(b1-2)Man(a1-3)[Fuc(a1-2)[Gal(a1-3)]Gal(b1-3)GlcNAc(b1-2)Man(a1-6)]Man(b1-4)GlcNAc(b1-4)[Fuc(a1-6)]GlcNAc
# Procedure, shortened: as §1
# [11] = molecular target: Fuc(a1-2)[Gal(a1-3)]Gal(b1-3)GlcNAc(b1-3)GalNAc
# Procedure, shortened: as §1
# [12] = molecular target: Fuc(a1-2)[Gal(a1-3)]Gal(b1-3)GlcNAc(b1-6)GalNAc
# Procedure, shortened: as §1
# [13] = molecular target: Fuc(a1-2)[Gal(a1-3)]Gal(b1-4)Glc
# Procedure, shortened: as §1
# [14] = molecular target: Fuc(a1-2)[Gal(a1-3)]Gal(b1-4)GlcNAc
# Procedure, shortened: as §1
# [15] = molecular target: Fuc(a1-2)[Gal(a1-3)]Gal(b1-4)GlcNAc(b1-2)Man
# Procedure, shortened: as §1
# [16] = molecular target: Fuc(a1-2)[Gal(a1-3)]Gal(b1-4)GlcNAc(b1-2)Man(a1-3)[Fuc(a1-2)[Gal(a1-3)]Gal(b1-4)GlcNAc(b1-2)Man(a1-6)]Man(b1-4)GlcNAc(b1-4)GlcNAc
# Procedure, shortened: as §1
# [17] = molecular target: Fuc(a1-2)[Gal(a1-3)]Gal(b1-4)GlcNAc(b1-2)Man(a1-3)[Fuc(a1-2)[Gal(a1-3)]Gal(b1-4)GlcNAc(b1-2)Man(a1-6)]Man(b1-4)GlcNAc(b1-4)[Fuc(a1-6)]GlcNAc
# Procedure, shortened: as §1
# [18] = molecular target: Fuc(a1-2)[Gal(a1-3)]Gal(b1-4)GlcNAc(b1-3)GalNAc
# Procedure, shortened: as §1
# [19] = molecular target: Fuc(a1-2)[Gal(a1-3)]Gal(b1-4)GlcNAc(b1-3)[Fuc(a1-2)[Gal(a1-3)]Gal(b1-4)GlcNAc(b1-6)]GalNAc
# Procedure, shortened: as §1
# [20] = molecular target: Fuc(a1-2)[Gal(a1-3)]Gal(b1-4)GlcNAc(b1-6)GalNAc
# Procedure, shortened: as §1
# [21] = molecular target: Fuc(a1-2)[Gal(a1-3)]Gal(b1-4)[Fuc(a1-3)]Glc
# Procedure, shortened: as §1
# [22] = molecular target: Fuc(a1-2)[Gal(a1-3)]Gal(b1-4)[Fuc(a1-3)]GlcNAc
# Procedure, shortened: as §1
# [23] = molecular target: Fuc(a1-2)[Gal(a1-3)]Gal(b1-4)[Fuc(a1-3)]GlcNAc(b1-3)GalNAc
# Procedure, shortened: as §1
# [24] = molecular target: Fuc(a1-2)[Gal(a1-4)]Gal(b1-4)GlcNAc
# Procedure, shortened: as §1
# [25] = molecular target: Fuc(a1-2)[GalNAc(a1-3)]Gal
# Procedure, shortened: as §1
# [26] = molecular target: Fuc(a1-2)[GalNAc(a1-3)]Gal(b1-3)GalNAc(a1-3)[Fuc(a1-2)]Gal(b1-4)GlcNAc
# Procedure, shortened: as §1
# [27] = molecular target: Fuc(a1-2)[GalNAc(a1-3)]Gal(b1-3)GalNAc(b1-3)Gal(a1-4)Gal(b1-4)Glc
# Procedure, shortened: as §1
# [28] = molecular target: Fuc(a1-2)[GalNAc(a1-3)]Gal(b1-3)GlcNAc
# Procedure, shortened: as §1
# [29] = molecular target: Fuc(a1-2)[GalNAc(a1-3)]Gal(b1-3)GlcNAc(b1-2)Man(a1-3)[Fuc(a1-2)[GalNAc(a1-3)]Gal(b1-3)GlcNAc(b1-2)Man(a1-6)]Man(b1-4)GlcNAc(b1-4)GlcNAc
# Procedure, shortened: as §1
# [30] = molecular target: Fuc(a1-2)[GalNAc(a1-3)]Gal(b1-3)GlcNAc(b1-2)Man(a1-3)[Fuc(a1-2)[GalNAc(a1-3)]Gal(b1-3)GlcNAc(b1-2)Man(a1-6)]Man(b1-4)GlcNAc(b1-4)[Fuc(a1-6)]GlcNAc
# Procedure, shortened: as §1
# [31] = molecular target: Fuc(a1-2)[GalNAc(a1-3)]Gal(b1-3)GlcNAc(b1-3)GalNAc
# Procedure, shortened: as §1
# [32] = molecular target: Fuc(a1-2)[GalNAc(a1-3)]Gal(b1-3)GlcNAc(b1-6)GalNAc
# Procedure, shortened: as §1
# [33] = molecular target: Fuc(a1-2)[GalNAc(a1-3)]Gal(b1-4)Glc
# Procedure, shortened: as §1
# [34] = molecular target: Fuc(a1-2)[GalNAc(a1-3)]Gal(b1-4)GlcNAc
# Procedure, shortened: as §1
# [35] = molecular target: Fuc(a1-2)[GalNAc(a1-3)]Gal(b1-4)GlcNAc(b1-2)Man
# Procedure, shortened: as §1
# [36] = molecular target: Fuc(a1-2)[GalNAc(a1-3)]Gal(b1-4)GlcNAc(b1-2)Man(a1-3)[Fuc(a1-2)[GalNAc(a1-3)]Gal(b1-4)GlcNAc(b1-2)Man(a1-6)]Man(b1-4)GlcNAc(b1-4)GlcNAc
# Procedure, shortened: as §1
# [37] = molecular target: Fuc(a1-2)[GalNAc(a1-3)]Gal(b1-4)GlcNAc(b1-2)Man(a1-3)[Fuc(a1-2)[GalNAc(a1-3)]Gal(b1-4)GlcNAc(b1-2)Man(a1-6)]Man(b1-4)GlcNAc(b1-4)[Fuc(a1-6)]GlcNAc
# Procedure, shortened: as §1
# [38] = molecular target: Fuc(a1-2)[GalNAc(a1-3)]Gal(b1-4)GlcNAc(b1-3)Gal(b1-4)GlcNAc
# Procedure, shortened: as §1
# [39] = molecular target: Fuc(a1-2)[GalNAc(a1-3)]Gal(b1-4)GlcNAc(b1-3)Gal(b1-4)GlcNAc(b1-3)Gal(b1-4)GlcNAc
# Procedure, shortened: as §1
# [40] = molecular target: Fuc(a1-2)[GalNAc(a1-3)]Gal(b1-4)GlcNAc(b1-3)GalNAc
# Procedure, shortened: as §1
# [41] = molecular target: Fuc(a1-2)[GalNAc(a1-3)]Gal(b1-4)GlcNAc(b1-3)[Fuc(a1-2)[GalNAc(a1-3)]Gal(b1-4)GlcNAc(b1-6)]GalNAc
# Procedure, shortened: as §1
# [42] = molecular target: Fuc(a1-2)[GalNAc(a1-3)]Gal(b1-4)GlcNAc(b1-6)GalNAc
# Procedure, shortened: as §1
# [43] = molecular target: Fuc(a1-2)[GalNAc(a1-3)]Gal(b1-4)[Fuc(a1-3)]GlcNAc
# Procedure, shortened: as §1
# [44] = molecular target: Fuc(a1-2)[GalNAc(a1-3)]Gal(b1-4)[Fuc(a1-3)]GlcNAc(b1-3)GalNAc
# Procedure, shortened: as §1
# [45] = molecular target: Fuc(a1-2)[GalNAc(a1-4)]Gal(b1-4)GlcNAc
# Procedure, shortened: as §1
binder,measurement,setting,value
"BC2LB (Burholderia cenocepacia), B4EH85_BURCJ (protein) MGSSHHHHHHSSGENLYFQGHMSQPFTHDDLYALLQLAGNDATAVQANGDQAVLDRMRQFMTAQLVEKLPQYDVFVDIATIPYSFDVGSWQNKVKTDAAGEVVACTVTWAGAPGVLPGAAAKFGVGAVVNYFSKATPH",glycan array binding signal (z-score),[1],-0.271
same,glycan array binding signal (z-score),[2],1.19
same,glycan array binding signal (z-score),[3],-0.282
same,glycan array binding signal (z-score),[4],0.021
same,glycan array binding signal (z-score),[5],0.133
same,glycan array binding signal (z-score),[6],-0.151
same,glycan array binding signal (z-score),[7],0.076
same,glycan array binding signal (z-score),[8],-0.206
same,glycan array binding signal (z-score),[9],-0.025
same,glycan array binding signal (z-score),[10],-0.25
same,glycan array binding signal (z-score),[11],-0.118
same,glycan array binding signal (z-score),[12],0.127
same,glycan array binding signal (z-score),[13],-0.198
same,glycan array binding signal (z-score),[14],-0.238
same,glycan array binding signal (z-score),[15],-0.194
same,glycan array binding signal (z-score),[16],-0.213
same,glycan array binding signal (z-score),[17],-0.297
same,glycan array binding signal (z-score),[18],-0.273
same,glycan array binding signal (z-score),[19],6.98
same,glycan array binding signal (z-score),[20],-0.305
same,glycan array binding signal (z-score),[21],-0.279
same,glycan array binding signal (z-score),[22],-0.01
same,glycan array binding signal (z-score),[23],-0.279
same,glycan array binding signal (z-score),[24],-0.187
same,glycan array binding signal (z-score),[25],-0.228
same,glycan array binding signal (z-score),[26],-0.281
same,glycan array binding signal (z-score),[27],-0.172
same,glycan array binding signal (z-score),[28],-0.249
same,glycan array binding signal (z-score),[29],-0.203
same,glycan array binding signal (z-score),[30],-0.164
same,glycan array binding signal (z-score),[31],-0.048
same,glycan array binding signal (z-score),[32],7.53
same,glycan array binding signal (z-score),[33],-0.25
same,glycan array binding signal (z-score),[34],-0.261
same,glycan array binding signal (z-score),[35],-0.324
same,glycan array binding signal (z-score),[36],-0.13
same,glycan array binding signal (z-score),[37],-0.205
same,glycan array binding signal (z-score),[38],-0.305
same,glycan array binding signal (z-score),[39],-0.176
same,glycan array binding signal (z-score),[40],-0.332
same,glycan array binding signal (z-score),[41],-0.198
same,glycan array binding signal (z-score),[42],-0.328
same,glycan array binding signal (z-score),[43],-0.178
same,glycan array binding signal (z-score),[44],-0.157
same,glycan array binding signal (z-score),[45],-0.275
